Experimental data from the supplement of paper PMC3334620.
The full ranking holds about 33,000 sequences; the median of “E-score (-0.5 to 0.5)” is about -0.011, and the highest 2% start at about 0.28. Some of the results follow.

biological target: T1, Gcr1 (UniProt P07261); assay: PBM E-score (8-mer binding enrichment) (E-score (-0.5 to 0.5)); higher = stronger / more preferred TF binding; most listed sequences are background and not binding sites; details: protein concentration: 100 nM; construct: GST-full length
T1 sequence: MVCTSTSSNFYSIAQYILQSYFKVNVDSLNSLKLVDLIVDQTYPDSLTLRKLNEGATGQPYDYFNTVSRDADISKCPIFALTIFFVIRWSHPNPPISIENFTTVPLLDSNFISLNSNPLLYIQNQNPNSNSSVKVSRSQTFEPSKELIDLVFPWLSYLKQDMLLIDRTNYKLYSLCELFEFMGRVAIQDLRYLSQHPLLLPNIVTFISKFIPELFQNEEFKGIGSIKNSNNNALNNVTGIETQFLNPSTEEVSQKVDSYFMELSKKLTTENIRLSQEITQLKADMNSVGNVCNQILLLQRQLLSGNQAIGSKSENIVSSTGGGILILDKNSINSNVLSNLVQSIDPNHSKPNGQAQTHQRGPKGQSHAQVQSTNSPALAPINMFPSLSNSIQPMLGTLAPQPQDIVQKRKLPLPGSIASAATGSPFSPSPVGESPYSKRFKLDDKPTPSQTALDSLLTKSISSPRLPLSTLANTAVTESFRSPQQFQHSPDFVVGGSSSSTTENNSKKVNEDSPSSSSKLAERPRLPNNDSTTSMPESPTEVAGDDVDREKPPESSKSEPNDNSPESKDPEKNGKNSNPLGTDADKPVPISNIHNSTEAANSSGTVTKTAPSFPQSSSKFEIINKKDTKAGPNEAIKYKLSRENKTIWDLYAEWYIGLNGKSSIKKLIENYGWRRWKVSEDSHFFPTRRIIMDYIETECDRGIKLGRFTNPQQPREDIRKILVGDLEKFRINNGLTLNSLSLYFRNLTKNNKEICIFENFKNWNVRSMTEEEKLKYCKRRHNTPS
Method in brief: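 Bound GST-tagged yeast transcription factors, applied at about 100-200 nM to double-stranded universal all-10-mer Agilent arrays, were detected with fluorescent anti-GST. Scans were normalised with masliner. A modified Wilcoxon-Mann-Whitney statistic, the E-score, was assigned to each ungapped eight-base word pooled with its reverse complement by the Universal PBM Analysis Suite.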

Sequence	PBM E-score
CGCTGTGA	-0.144
ACAATGAA	-0.0304
GGCTTGAC	-0.176
CGTACTCA	-0.0226
CCGGCGCA	-0.0778
CAAGACAC	0.0836
TCAAGCGA	-0.0035
CGCGACGC	-0.028
ATTGGTCG	0.0402
GATTACAA	0.00708
GGGACAGA	-0.0845
AATCGTTG	0.00401
CCGCAACC	0.316
AGAGGGAA	-0.176
ACACATTC	-0.0795
CACTGAGA	-0.0465
AAATGAGA	0.137
AAGTCATG	0.00488
CGGCAGAG	-0.198
AGTAAACT	-0.00763
GCGGACGA	-0.0103
ACCTGAAG	-0.0913
AGCGCGTA	0.0354
AAATAGGT	0.17
CTACTAAG	0.0321

Sequence	PBM E-score
GTAGTCTA	-0.00503
CGGTACTA	-0.0633
TGCATACA	-0.205
AGAGCATG	-0.0857
AATGTTCT	-0.00075
ATCCCGAA	0.24
TAAATTGA	0.126
AACCGGTC	0.0843
CTTGAAAA	0.104
AATTTCCC	0.129
AGACCGGA	-0.0589
ATCCCCTA	-0.0165
AGATCCGA	-0.0858
ATTTCCGC	0.0282
CGAGAGCA	0.12
GTTACCTA	-0.0726
CAGGCTAA	-0.164
CGAAAACA	-0.0974
CTGCCACA	-0.0567
AAGCCTGT	0.00817
CGCCGCAC	0.0199
CGACTGTC	-0.252
CGCAAATC	-0.121
AGCACAAG	-0.0814
ACGCTCAA	-0.153

Sequence	PBM E-score
CGCGCCCG	0.0381
CTGGCCAG	-0.281
AACTCTAA	0.0992
GGATGATA	0.0314
GCGAGCAA	-0.0825
CTCTAAAC	0.0413
CCACTGAA	0.13
CATTAGCC	-0.269
AGCCGACC	-0.136
CTTTTAGC	-0.171
TCACCAAA	0.117
ACGAGATG	0.163
GCTCTCTA	-0.354
GCGTAAAA	0.225
ATGCGATG	0.0651
CGTTGAAA	0.0725
TATCCAGA	0.0553
CCGGGCCG	-0.0357
AGGATAGC	-0.035
TCAACTGA	-0.0959
AAATGGTG	0.258
ACCGTCTG	-0.117
ACACATGA	-0.0602
ATAGCGTG	-0.197
ATTGATTC	0.113

Sequence	PBM E-score
CACCTTAC	0.0428
TAGAAGGA	-0.205
AGGCTCTG	-0.211
AACAGAAC	0.138
AGCACCTA	0.241
CATGACGG	-0.0921
CGGGTTAA	-0.0652
CGCCATCA	-0.0561
GGGGTGTA	-0.0995
CGAGATAA	0.142
TCGTAGAA	0.145
ATAGGTGC	0.0575
CCCCGGCA	-0.0104
CATTACAG	-0.0702
AGGCATAG	-0.209
ATGGAATG	-0.00503
ATACAGTC	-0.258
GGAAATAA	0.09
AAAAGGGG	0.143
ATCTTCGC	-0.0394
ACTGTATC	-0.275
AACGCACC	-0.0685
ACCCTTGC	-0.187
ACACCACA	0.12
CCTAATGA	0.179

Sequence	PBM E-score
CTATGTCA	0.0536
ACTATTGG	0.0296
CGTTGAGA	-0.138
AGGCTTTC	-0.217
ACAACTTG	0.119
AAGAACCT	0.2
CCCGAGCG	-0.169
GATATAAA	-0.0128
GATTATGC	-0.0723
ACGGCAAC	0.0889
TCATATGA	-0.185
ACGCTCTC	0.0548
AGAGTGAC	-0.146
GTAATTAA	-0.228
CTAACGTA	-0.17
GGTATCTA	0.292
AGAATTAA	0.133
TCCGCCGA	0.198
AACCGGTT	0.276
AATGCCAT	-0.0478
GGAAACGA	0.0988
AAGCAGCC	0.308
ACACAGAA	-0.0461
AACCGGGT	0.0617
GCAGGTCA	-0.153

Sequence	PBM E-score
CAGGTCAG	-0.172
CGCGCGTA	0.00763
TGTCTCAA	-0.0159
GTCTACCA	0.0171
AACAAATC	-0.0494
AGGTTATG	-0.0729
GCTATCAA	0.216
TCTGGCAA	0.0938
AAAAAATA	0.236
TATACCAA	0.122
AGTTCTCA	-0.0717
CGGCGAAG	-0.105
GTATTGAA	0.0329
ACAGTATA	-0.17
CTGTAAAA	0.213
GCTACTCC	0.0342
GAAGCTAA	0.312
AGCTCGAT	-0.0366
GATCTGGA	0.0947
CCCCCGTC	-0.14
AATTCTCG	0.0938
ACACCCTG	-0.0426
ACAAACTA	0.0419
ATTCTTAG	0.033
GGCATCTA	0.347

Sequence	PBM E-score
GGACGTCA	-0.115
AATGCAAA	0.0621
GATTAACC	-0.0563
AATGTAAT	0.0846
AGAACGCC	0.062
CCGCGTCC	0.182
GGCATGAA	-0.0265
AGTAAGTA	-0.0361
ACCCTGTC	-0.0299
AATCCGGG	0.0188
CCGGCGAA	-0.0464
CGGTCCCA	0.0526
AATGTTGT	-0.0341
CTCGCGAG	-0.113
GTCACGTA	-0.251
AATAGATA	0.0158
AGGCACTC	0.034
GCTTTTCA	0.135
CGGCTACA	0.23
CTCTCCCC	-0.14
CGTCACGA	0.108
CAAATGGG	-0.0381
